Some of the results follow. At the low end of the ranking the order means little. Measured with an extract: partners may take part in the binding.

The values that follow come from publication PMC10726135.

In this test the target is T1, HNF4alpha2 (COS-7 nuclear extract) (UniProt P41235).
T1 sequence: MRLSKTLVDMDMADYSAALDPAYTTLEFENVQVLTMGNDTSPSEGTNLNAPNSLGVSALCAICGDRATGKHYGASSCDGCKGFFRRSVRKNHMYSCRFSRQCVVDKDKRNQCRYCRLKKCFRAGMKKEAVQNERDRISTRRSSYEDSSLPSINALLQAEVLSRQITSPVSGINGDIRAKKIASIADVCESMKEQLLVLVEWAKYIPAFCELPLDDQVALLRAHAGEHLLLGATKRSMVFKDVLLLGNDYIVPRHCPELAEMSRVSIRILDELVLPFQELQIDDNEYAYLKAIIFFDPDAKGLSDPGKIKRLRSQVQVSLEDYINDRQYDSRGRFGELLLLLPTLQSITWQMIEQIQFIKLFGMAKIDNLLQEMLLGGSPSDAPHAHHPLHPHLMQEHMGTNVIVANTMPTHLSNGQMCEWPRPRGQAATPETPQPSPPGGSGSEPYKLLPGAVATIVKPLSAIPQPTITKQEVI
Description: protein-binding microarray. Conditions: COS-7 nuclear extract on double-stranded Agilent 4x180k PBM; binding buffer, salt, pH and temperature not given; high values mean tight binding; double strand, one strand shown; sequences stand for … in …GCCTAGGGAGATTAGAGTATCGGTCGA
With AGATGGGGTGAACTTTGGACCACATATAGA, the binding signal (log2 normalized intensity) stood at 7.14.

Turning to GAGAGAAATTGCTTAAGTGCTTGTCAGTTT, the binding signal (log2 normalized intensity) was determined as 1.04.

For the sequence GTAGACTAAAACCCATATCTGACTGATGCT, the binding signal (log2 normalized intensity) was -1.11.

On to ATGGCAGACGGGGCTCTCAGAATCTGCCGA, for which the binding signal (log2 normalized intensity) was -0.81.

GATTGCGCCACTGCATTCCAGCCTGGGGCA: the binding signal (log2 normalized intensity) was -1.17.

Regarding GTGTGTCTGTAGTTTTCGTTGTCTAATCCT, the binding signal (log2 normalized intensity) is 1.75.

As for TGGCCAGTATCCGCCTTCACTCCCCTGACA, the binding signal (log2 normalized intensity) was determined as 2.4.

TTCCTTCGGGATTATGGTAGGCAGCCTCTG: the binding signal (log2 normalized intensity) is -1.04.

For TGCAAGGCTGTTGGCAGATTAGATATATCT, the binding signal (log2 normalized intensity) came to 0.232.

In the case of AAGGTGAAGCCCAGCAGCTCCAGGAGACGT, the binding signal (log2 normalized intensity) is -0.905.

For the sequence GCACGTTAGAGAAAAAGCCCAAGAAACTTC, the binding signal (log2 normalized intensity) was -1.08.

In the case of GTCACTGTATGCCCGAAAGACGCGGAGCGG, the binding signal (log2 normalized intensity) came to 0.97.

In the case of TTTGAGGGCTCAAAGGTTACCACCCAGGAG, the binding signal (log2 normalized intensity) is 3.41.

As to CTTGGCTGTGTCCCTTGACCAAAGGTCACT, the binding signal (log2 normalized intensity) came out at 6.77.

With GCAATAAACTCCGTTATCACTCCTGGTTGG, the binding signal (log2 normalized intensity) is -0.602.

Consider CTCAGTATGGCAACCTTTGTCCTGCTGAGG, for which the binding signal (log2 normalized intensity) came out at 3.72.

Regarding AGGCTCAGTGGGCGTTGACTGATCCCTCTG, the binding signal (log2 normalized intensity) stood at 0.757.

Turning to ATGGCTGCAGCTCTTCCACGTGAGATAAGC, the binding signal (log2 normalized intensity) is -0.809.

As to TGGAATACAGCAGGGTAGAAAAGAGTTAAA, the binding signal (log2 normalized intensity) is -0.339.

In the case of AAGGAATAAAATAGCTGCCTGTGTGTTCTG, the binding signal (log2 normalized intensity) was 0.95.

On to TATGTGCTGACTGACTCCTGTTACTTCCAC, for which the binding signal (log2 normalized intensity) is 0.99.

For the sequence AGATAAATGCCTTAGCTGTGACCATCTCCT, the binding signal (log2 normalized intensity) is -1.21.

AGTCTAACTTTGGACTTTTATGTTAAGATC: the binding signal (log2 normalized intensity) is 2.25.

Take GTGCTGACTAAGAGGAGAAGCAAATGAAAA: the binding signal (log2 normalized intensity) was -1.17.

TCCAAACTGCAACCTGATAAGATTTTAGAA: the binding signal (log2 normalized intensity) is -1.14.

As to GTCAAAGGTTGATGGTATGTTTCAGCCAAG, the binding signal (log2 normalized intensity) came to 1.16.

On to AAGCGGCTGGCTTTAAGGTCACATAGCAGG, for which the binding signal (log2 normalized intensity) is -0.0902.

Consider ATGGACATAGTAACAACCTAAATCAGAGCA, for which the binding signal (log2 normalized intensity) is -1.2.

On to GGGCCACTCAGTTGAAGTTCCAGAAGACTA, for which the binding signal (log2 normalized intensity) is -1.08.

CATCTGCAAGAGAGAATAGATAGTGTGAGG: the binding signal (log2 normalized intensity) was determined as 1.26.

For GGGTCATGCTGGTCTCCTTGCCCCACCCCC, the binding signal (log2 normalized intensity) came to 5.55.

For the sequence TGTGACTGATAAATCCCGAGCCAGAGCCAA, the binding signal (log2 normalized intensity) was -0.887.

For CGTCTTACATTTCTAAAGAACATTCCAGCT, the binding signal (log2 normalized intensity) was -1.13.

In the case of GTGCTCTGGGTCTGTCCTTTGTGTTTATGG, the binding signal (log2 normalized intensity) amounted to 2.66.

Consider TATCTTTCTCCTACAGCCTGATGTTGACAG, for which the binding signal (log2 normalized intensity) was 0.831.

Take CGTCCTGTGGCAAAGGTGAATGACCCCTCC: the binding signal (log2 normalized intensity) worked out at 4.78.

Consider CACTGGCCAAAGGTAATAGGAAAAGGGAGT, for which the binding signal (log2 normalized intensity) is -1.1.

With AGCTAGTAGGAGCGGGCTTAACTAGGAGCC, the binding signal (log2 normalized intensity) was -1.12.

On to GAGCTGAAACAGTCTGATTCTAGGGCCCAT, for which the binding signal (log2 normalized intensity) is -1.16.

For GGCTAATGCATGTCCCTCCTCAACCTCTCC, the binding signal (log2 normalized intensity) is -0.256.

As to TCACAAGACTGTTATCACAGCTGGCCCACT, the binding signal (log2 normalized intensity) was -1.12.

For the sequence AAGCACTGAGCATACAGAACCCATGCTCTT, the binding signal (log2 normalized intensity) is -1.01.

As for AGGTCCTTGAAAGTAAGCAGACACTGAAAG, the binding signal (log2 normalized intensity) was -1.08.

As for AAGGTCAGCGCTTTGGTAGGCTGTATGGCT, the binding signal (log2 normalized intensity) is -1.1.

Turning to ACACACAGCACTGCAAACAGTGAGCCCAGT, the binding signal (log2 normalized intensity) is -1.05.

In the case of TTGAAGTGCTTCCTGTGTATTTCTTCATCA, the binding signal (log2 normalized intensity) turned out to be 1.44.

In the case of GTTAGACGCACGGCAGAGCACCTGGATAAG, the binding signal (log2 normalized intensity) is -1.16.

Take AACTATGCTAAGAATGCGAACCATTTCCCA: the binding signal (log2 normalized intensity) was -1.02.

Turning to AAGCTATCCCTCCATATTGCAGACAGCATA, the binding signal (log2 normalized intensity) is -1.21.

Consider TCTGAGTAAACACAGACTTTGGAATCACAA, for which the binding signal (log2 normalized intensity) was found to be 2.65.

For GCACAAAGTACAAAAGAGGCTTCCTGGGCC, the binding signal (log2 normalized intensity) is -1.16.

For AATTGTGTGGTTATCTGTTGGGGAATCAGT, the binding signal (log2 normalized intensity) turned out to be 1.72.

As to AAACAAATAATGGCTTTTGCCCTCAAGGAG, the binding signal (log2 normalized intensity) was determined as 0.862.

As to CTAGGTCAGCAGTTGTTCAAAGTCCATGTG, the binding signal (log2 normalized intensity) turned out to be 5.04.

With GGTCCACAGCTTTGGGCATACAAAACAACC, the binding signal (log2 normalized intensity) is -1.09.

For the sequence GAGCACAAGAACAAAAACTGTTTCTATGTG, the binding signal (log2 normalized intensity) was -1.07.

Turning to CCTAGCTGAGCAGGGGACTAAGAGCAGCCT, the binding signal (log2 normalized intensity) was -0.954.

AGACTGGCTCCGCTGCTGCAGAGCAAAGCT: the binding signal (log2 normalized intensity) was -1.11.

As for AGCAATGCTGAGTATGCAGCGGGCAGCCCG, the binding signal (log2 normalized intensity) was -1.32.

Turning to CATCCCCCCAAAGGCTCTCTGTTGACCACC, the binding signal (log2 normalized intensity) turned out to be 3.62.

On to TAAAATGGACTTTGTGGGCCAAAAGCAGCC, for which the binding signal (log2 normalized intensity) is 2.22.

As to GACTCCCCAGCAGGCAGACTGGCTCCGCTG, the binding signal (log2 normalized intensity) was -1.08.

TAGCATTTTGCAGAGACGGCAAGCCATAGT: the binding signal (log2 normalized intensity) is -1.09.

As to CCAAAGTCCTTCCCAAGTCCTGCATGTGTT, the binding signal (log2 normalized intensity) is 1.84.

AGGGAGGGCCAAGCCCTCCATCCAACCATT: the binding signal (log2 normalized intensity) was determined as 3.65.

As to GAGGGGAGGAGGGTCAAAACTTCAGACTAT, the binding signal (log2 normalized intensity) was -1.15.

On to AGGCACACTCTATTATGTAAAACAGACAGG, for which the binding signal (log2 normalized intensity) was -0.0649.

For ATGGATGAATTTTATCACTCCATCAAGGGG, the binding signal (log2 normalized intensity) is -1.1.

With TAGATAAGTCCACAAAGATAAGAAAGAATC, the binding signal (log2 normalized intensity) was -1.1.

As to AGTTTGGGCTGTGAGAAACATCCTGCCTAA, the binding signal (log2 normalized intensity) is -1.14.

As to CCTGGGTTAAAGTCCGTTACAGACAGGCAG, the binding signal (log2 normalized intensity) was found to be 3.35.

With GTTAACAGAATGAACAGCTCTTCTTGCCAG, the binding signal (log2 normalized intensity) is -0.885.
